In all, about 310,000 compounds went through this assay and about 14,000 (4.5%) showed an effect of 50% or more. Effects have a minus sign here. Some of the results follow.
Molecular target: human ether-à-go-go-related gene (hERG) potassium channel (human, UniProt Q12809)
Assay: primary screen, population patch clamp on CHO cells stably expressing hERG
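Note: peak tail current of the secondary pulse compared with the same well before compound.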

Chain of human ether-à-go-go-related gene (hERG) potassium channel (Q12809 whole entry, looked up): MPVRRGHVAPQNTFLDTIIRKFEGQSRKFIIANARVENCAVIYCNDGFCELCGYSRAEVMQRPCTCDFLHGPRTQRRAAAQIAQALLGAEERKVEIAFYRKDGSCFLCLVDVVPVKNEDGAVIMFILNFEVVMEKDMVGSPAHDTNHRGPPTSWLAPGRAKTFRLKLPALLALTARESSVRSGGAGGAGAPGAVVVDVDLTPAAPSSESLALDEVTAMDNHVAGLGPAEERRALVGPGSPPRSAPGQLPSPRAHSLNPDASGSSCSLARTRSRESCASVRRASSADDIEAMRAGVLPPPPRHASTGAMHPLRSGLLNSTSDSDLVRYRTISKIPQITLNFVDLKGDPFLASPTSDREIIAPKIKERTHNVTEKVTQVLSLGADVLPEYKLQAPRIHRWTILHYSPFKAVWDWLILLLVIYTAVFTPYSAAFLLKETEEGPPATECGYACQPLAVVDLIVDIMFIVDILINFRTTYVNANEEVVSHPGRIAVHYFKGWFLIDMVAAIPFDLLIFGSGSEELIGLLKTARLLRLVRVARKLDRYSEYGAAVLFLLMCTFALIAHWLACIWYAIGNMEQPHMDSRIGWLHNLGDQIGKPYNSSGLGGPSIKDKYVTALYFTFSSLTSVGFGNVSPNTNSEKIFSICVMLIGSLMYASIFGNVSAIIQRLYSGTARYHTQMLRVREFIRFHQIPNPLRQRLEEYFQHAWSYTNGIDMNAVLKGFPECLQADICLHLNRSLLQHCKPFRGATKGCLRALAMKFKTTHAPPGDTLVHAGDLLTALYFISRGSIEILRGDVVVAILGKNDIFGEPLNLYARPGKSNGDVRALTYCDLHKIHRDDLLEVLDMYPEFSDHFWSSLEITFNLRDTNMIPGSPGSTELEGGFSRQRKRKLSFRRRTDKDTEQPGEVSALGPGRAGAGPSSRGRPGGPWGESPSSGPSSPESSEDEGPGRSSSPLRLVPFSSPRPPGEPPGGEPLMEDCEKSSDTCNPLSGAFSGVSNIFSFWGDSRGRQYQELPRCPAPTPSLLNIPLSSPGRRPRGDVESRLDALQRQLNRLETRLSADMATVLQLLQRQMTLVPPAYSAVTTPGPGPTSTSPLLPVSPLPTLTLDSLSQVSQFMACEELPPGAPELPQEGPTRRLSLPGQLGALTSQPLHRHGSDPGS

Row | Structure (SMILES) | hERG current change (%, negative = inhibition) at 10uM [%]
1 | Cn1c(=O)c2sccc2n2c(CCCC(=O)N3CCN(c4ccccn4)CC3)nnc12 | -11.1
2 | CCOC(=O)c1c(-c2ccc(-c3ccccc3)cc2)csc1NC(=O)C1C2CCC(O2)C1C(=O)O (stereo not shown) | 7.14
3 | O=C(Nc1ccccc1N1CCCCC1)c1ccc(Cl)cc1 | 12.6
4 | CCn1cc(S(=O)(=O)N2CCN(c3ccc(Cl)cc3)CC2)cn1 | 7.96
5 | COc1cc(NC(=O)c2noc3c2CCC3)c(OC)cc1Cl | 4.4
6 | O=C(Nc1cccc(C(F)(F)F)c1)NC1CCCCC1 | -3.18
7 | CCCCN(C(=O)c1cc(S(=O)(=O)N2CCOCC2)ccc1Cl)c1c(N)n(CC(C)C)c(=O)[nH]c1=O | -10.8
8 | CCc1nnc(NC(=O)c2c(O)c3c([nH]c2=O)CCCC3)s1 | 3.51
9 | c1ccc(CSc2nnnn2-c2cccc3ccccc23)nc1 | -3.49
10 | COc1ccc(C2=NC(C)(C)Cc3cc(OC)c(OC)cc32)cc1 | -44
11 | CCOc1ccc(N(CC(=O)NC2CCCCC2)C(=O)CNC(=O)c2ccco2)cc1 | -21.1
12 | NS(=O)(=O)c1cccc(NC(=O)Cn2cnc3ccccc3c2=O)c1 | 13.3
13 | CCC(C)NC(=O)C1CC(=O)N(CCc2ccc(F)cc2)C1 (stereo not shown) | 15.6
14 | COCCN(C(=O)COC(=O)c1ccc(C)s1)c1c(N)n(Cc2ccccc2)c(=O)[nH]c1=O | -4.41
15 | O=C(c1ccc(S(=O)(=O)NCc2ccco2)cc1)N1CCN(Cc2ccc3c(c2)OCO3)CC1 | -32.5
16 | CC(=O)N1CCN(c2nnnn2-c2ccccc2)CC1 | -2.01
17 | CC(=O)C1=C(O)C(=O)N(c2cccc(Br)c2)C1c1ccc(Br)cc1 (stereo not shown) | 15.8
18 | Cc1cc(N)n(-c2cc(C)c3ccccc3n2)n1 | 5.92
19 | O=C(Nc1ccc2c(c1)CCC2)c1cnn2c1NC(c1ccco1)CC2C(F)(F)F (stereo not shown) | 0.207
20 | Cc1nc(C(C)N(C)Cc2c(C(=O)N3CCCCC3)nc3c(C)cccn23)c(C)s1 (stereo not shown) | -22.7
21 | Nc1nc2ccc(NC(=O)c3ccco3)cc2s1 | 11.7
22 | O=C(CN(c1cccc(C(F)(F)F)c1)S(=O)(=O)c1ccc(Cl)c([N+](=O)[O-])c1)NCc1ccccc1 | -3.26
23 | N#CCC(=O)N/N=C/c1ccc(Cl)cc1 | 8.5
24 | CCN(c1ccc(C(=O)CSc2nnc(C3CC3)n2C2CC2)cc1)S(C)(=O)=O | -6.53
25 | CCN(CC)c1ccc(NC(=O)c2c(C)noc2C)cc1 | 12.3
26 | Cc1ccc(CN2CCCN(Cc3ccccc3C)S2(=O)=O)cc1 | 21.1
27 | Oc1ccc(Cl)cc1-c1cc(-c2cccc(Br)c2)n[nH]1 | 9.52
28 | Cc1c(C(=O)N(Cc2ccccc2Cl)C2CCS(=O)(=O)C2)oc2ccccc12 (stereo not shown) | -9.98

Row | Structure (SMILES) | hERG current change (%, negative = inhibition) at 10uM [%]
29 | CCOc1ccc(NC(=O)CCC(=O)NNC(=O)Nc2ccc(Cl)cc2)cc1 | 14.9
30 | CCCC1=C(C(=O)OCC)C(c2ccncc2)n2ncnc2N1 (stereo not shown) | -0.902
31 | COC(=O)C1=C(C)NC(=O)NC1c1ccccc1Cl (stereo not shown) | 14.6
32 | CCn1c(SCC(=O)NNC(=S)Nc2ccc(C)cc2)nnc1-c1ccc(Cl)cc1 | -20.4
33 | CCc1ccccc1NC(=O)CN(C)S(=O)(=O)c1ccc(-c2ccc(=O)[nH]n2)s1 | -74.8
34 | CCCc1c(C(=O)N/N=C/c2ccc(OCc3ccccc3)c(OC)c2)nnn1-c1nonc1N | 23.4
35 | COc1ccccc1CNC(=O)c1ccc(CNc2c(N3CCCC3)c(=O)c2=O)cc1 | -4.13
36 | CCOc1ccccc1N(CC)C(=O)c1ccc2c(=O)n3c(nc2c1)CCCCC3 | -7.22
37 | CN(C)c1ncc([N+](=O)[O-])cc1C(F)(F)F | 19.6
38 | COc1ccccc1-c1nc2ccc(Cl)cc2c(=O)n1O | 10.3
39 | O=C(Nn1cnc2ccccc2c1=O)c1ccc([N+](=O)[O-])cc1Cl | 14.1
40 | Cc1cc(C)c(CN2CCC(n3nccc3NC(=O)C3CCCC3)CC2)cc1C | -70.7
41 | CCC(C)CCCCCCCCCCC(=O)O (stereo not shown) | 36.1
42 | Nc1[nH]nc2nc(NCc3ccccc3)c3c(c12)CCN(Cc1ccccc1)C3 | -30.1
43 | NC(=O)Nc1ccc(C(=O)OCC(=O)N(Cc2ccccc2)C2CCS(=O)(=O)C2)cc1 (stereo not shown) | 39.5
44 | CC(C)(C)c1ccc(C(=O)N2CCN(Cc3ccccc3)CC2)cc1 | -3.08
45 | CCOc1ccc(S(=O)(=O)Nc2ccc(C(=O)N3CCCC3)cc2)cc1 | 4.68
46 | CSc1cccc(NC(=S)N(CCCN2CCCC(C)C2)Cc2cccs2)c1 (stereo not shown) | -75.6
47 | C=C(C)COc1ccc2c(CC)cc(=O)oc2c1 | -20
48 | Cc1cc(C(=O)Nc2ccc(C(=O)O)cc2)c(-c2ccccc2)o1 | -6.94
49 | CCCCc1ccccc1NC(=S)NC1CCCC1 | -2.82
50 | Cc1nn(Cc2cccc(C(=O)NN)c2)c(C)c1Cl | 8.48
51 | CCCS(=O)(=O)N1CCc2ccc(NC(=O)C3CCCO3)cc2C1 (stereo not shown) | -16.2
52 | Cc1nn2c(SCC(=O)c3cccs3)cc(C(C)(C)C)nc2c1-c1ccccc1 | 4.2
53 | CC1CN(S(=O)(=O)c2cccc(C(=O)N=c3sccn3C)c2)CC(C)O1 (stereo not shown) | -6.06
54 | Cc1ccc(-n2nccc2-c2nn(-c3cccc(C(F)(F)F)c3)c(=O)n(C)c2=O)cc1 | 14.9
55 | CC(=O)c1ccc(NC(=O)CSc2nnc(Cc3cccn3C)n2-c2ccc(F)cc2)cc1 | -12.9

From paper PMC4336329 (PLoS ONE, 2015)
